Data reported in patent US20260042834A1, “ANTI-CORTICOTROPIN-RELEASING HORMONE ANTIBODIES AND POLYCYSTIC OVARY SYNDROME” (HBM ALPHA THERAPEUTICS, INC., priority 2022, published 2026).

B1: PR006746: ΔPTM variant of Series 2 mAb PR006669; HCDR2 54DS55 (antibody)
heavy: EVQLVESGGGLVQPGGSLRLSCAASGFTFSDNWMSWVRQAPGKGLEWVANIKQDSSENYYVDSVKGRFTISRDNAKNSLYLQMNSLRAEDTAVYYCSRGLALWGWGQGTLVTVSS[human IgG1 constant region not listed]
light: DIVMTHSPLSLPVTPGDPASISCRSSQSLLHSTGYNYLDWYLQKPGQSPQLLIYLGSNRASGVPDRFSGSGSGTDFTLKFIRVEAEDVGVYYCMQALQTPYTFGQGTKLEIKRTVAAPSVFIFPPSDEQLKSGTASVVCLLNNFYPREAKVQWKVDNALQSGNSQESVTEQDSKDSTYSLSSTLTLSKADYEKHKVYACEVTHQGLSSPVTKSFNRGEC
B2: PR302341-55: Series 10 humanized, PTM-removed anti-CRH mAb (Table 9), scaled up for in vivo studies (antibody)
heavy: QVQLVQSGAEVKKPGASVKVSCKASGYTFTDYFMKWVRQAPGQRLEWMGVINPNNADIFYNQKFKGRVTITRDTSASTAYMELSSLRSEDTAVYYCARGTDRALFAYWGQGTLVTVSS[human IgG1 constant region not listed]
light: DVVMTQSPLSLPVTLGQPASISCRSGQSIVHSDGNTYLEWYQQRPGQSPRLLIYKVSNRFSGVPDRFSGSGSGTDFTLKISRVEAEDLGVYYCFQGSHIPWTFGGGTKVEIKRTVAAPSVFIFPPSDEQLKSGTASVVCLLNNFYPREAKVQWKVDNALQSGNSQESVTEQDSKDSTYSLSSTLTLSKADYEKHKVYACEVTHQGLSSPVTKSFNRGEC
B3: PR302341-60: Series 10 humanized, PTM-removed anti-CRH mAb (Table 9), scaled up for in vivo studies (antibody)
heavy: B2 heavy with N55Q, A56G
light: B2 light with G34A
B4: PR302341-48: Series 10 humanized, PTM-removed anti-CRH mAb (Table 9), scaled up for in vivo studies (antibody)
heavy: B2 heavy with R44G, N55Q, A56G, I70M, R72V, T74K, A76T
light: B2 light with S7T, L11S, G34A, S48P, S72A
B5: PR302341-29 (antibody)
heavy: B2 heavy with R44G, I70M, R72V, T74K, A76I, S85R, E89D
light: B2 light
B6: PR302341-33 (antibody)
heavy: B2 heavy with R44G, I70M, R72V, T74K, A76I, S85R, E89D
light: B2 light with G34A
B7: PR302341-37 (antibody)
heavy: B2 heavy with R44G, N55S, A56G, I70M, R72V, T74K, A76I, S85R, E89D
light: B2 light with G34A

system: human CRHR2; assay: CRH-induced luciferase reporter blocking assay, CHO-CRE-hCRHR2 cells; type: cell-based; details: CHO-CRE-hCRHR2 cells, 0.1 nM CRH
Description: (§1) To create CHO-CRE-hCRHR1, -hCRHR2, -mCRHR1, and -mCRHR2 reporter cell lines, pcDNA3.1-hCRHR1, -hCRHR2, -mCRHR1, and -mCRHR2 were introduced into CHO-CRE cells established above by electroporation as described above. Selection antibiotics hygromycin at 500 μg/ml and G418 at 1,000 μg/ml were employed. Individual established stable cell lines were characterized by both CRH and forskolin stimulation.
Activated GPCR proteins increase production of the intracellular cAMP. CHO-CRE-human CRHR1 stable clone 11 was generated by introduction of pcDNA3.1-human CRHR1 under the selection of G418 and hygromycin. Human CRHR1 expression in CHO-CRE-hCRHR1 Clone 11 was confirmed by flow cytometry (data not shown). To further validate that the cell line was functional, CHO-CRE-hCRHR1 Clone 11 cells were treated with forskolin and CRH peptide. […] Subsequently CHO-CRE-hCRHR2 Clone 32, -mCRHR1 Clone 22, and -mCRHR2 Clone 8 cell lines were established using similar methodology and validated with CRH treatment (data not shown).
Blocking CRHR1 by small molecules or neutralization of CRH peptide can reduce luciferase expression if the CRH-CRHR1 system works in CHO-CRE-hCRHR1 cells. Antalarmin, a small molecule CRHR1 antagonist, blocked CRH-mediated luciferase expression in CHO-CRE-hCRHR1 Clone 11 (data not shown). Furthermore, sheep anti-CRH polyclonal antibody reduced CRH-mediated luciferase expression in these cells (data not shown). Likewise, sheep anti-CRH polyclonal antibody blocked CRH-mediated luciferase expression in CHO-CRE-hCRHR2, CHO-CRE-mCRHR1, and CHO-CRE-mCRHR2 cells (data not shown).
(§2) Cells were digested by trypsin-EDTA (Life technologies, Cat #:12604-013), centrifuged at 1,000 rpm for 5 min, resuspended in growth medium, counted using a cell counter, seeded at a concentration of 5,000 cells per 100 μl in 96-well flat plates, and incubated overnight. 50 μl of 4× serially diluted antibodies was added (8 points, 1/4 diluted by growth medium) to plates containing CHO-CRE-hCRHR1 cells, and 50 μl of 4×CRH (4× is 2 nM, final is 0.5 nM) was added. Similarly, 4×CRH (4× is 0.4 nM, final is 0.1 nM) was added to CHO-CRE-hCRHR2 cells and CHO-CRE-mCRHR1 cells, and 4×CRH (4× is 20 nM, final is 5 nM) was added to CHO-CRE-mCRHR2 cells. Next, plates were incubated 4-6 hours at 37° C. in a CO2 incubator. 60 μl of culture medium was removed, to which was added 60 μl of Bio-Glo luciferase, followed by incubation for 10 min at RT. Plates were read in a luciferase plate reader (EnVision, PerkinElmer).

Work on B1 yielded an IC50 of 37.8 nM.

same assay, conditions: Table 9; hCRHR2

In order of rising IC50:
1. B5  1.18 nM
2. B6  1.29 nM
3. B2  1.63 nM
4. B4  ~2.23 nM
5. B7  2.35 nM
6. B3  3.72 nM

system: mouse CRHR2; assay: CRH-induced luciferase reporter blocking assay, CHO-CRE-mCRHR2 cells; type: cell-based; details: CHO-CRE-mCRHR2 cells, 5 nM CRH
Description: as §1, with “stimulation. […]” for “stimulation.”
as §2

B1 gave an IC50 of 9.31 nM.

same assay, conditions: Table 9; mCrhr2

In order of rising IC50:
1. B5  0.413 nM
2. B6  1.86 nM
3. B4  1.87 nM
4. B2  2.08 nM
5. B7  ~2.12 nM
6. B3  3.71 nM

target: T1, biotinylated CRH (Homo sapiens, UniProt P06850); assay: Affinity determination with Octet; type: binding; details: not given
T1 construct: purchased GL Biochem 784751
T1 sequence (P06850 154-194): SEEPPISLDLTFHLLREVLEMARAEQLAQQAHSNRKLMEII
Description: Octet® Red 96e was used for affinity measurement. Octet® running buffer was prepared by diluting kinetics buffer 10× (Fortebio, Cat #18-1105) in PBS according to the manufacturer's instructions. Two columns of SA sensors (Fortebio, Cat #18-5019) were hydrated in running buffer for 10 mins, one for ligand capturing and the other for reference. Antibodies were 2-fold diluted and added into a 96-well plate. 30 nM biotinylated CRH (GL Biochem, Cat #784751) was captured by the first column of SA sensors for 20 seconds, while reference sensors were dipped into buffer wells. After a 60-second baseline step, sensors were dipped into analyte and buffer wells successively, with the association and dissociation time of 180 seconds and 800 seconds, respectively. Sensors were regenerated in glycine pH1.5 (Cytiva, Cat #BR-1003-54) before the next cycle. […] Signals of reference wells and reference sensors were subtracted by selecting “Double reference” before data fitting.

B2 was tested, and the “kdis” value was under 1e-07 s⁻¹.
B4 was tested, and the “kdis” value was under 1e-07 s⁻¹.

In order of falling “kon” value:
1. B3  2.49e+06 M⁻¹ s⁻¹
2. B2  1.2e+06 M⁻¹ s⁻¹
3. B4  1.04e+06 M⁻¹ s⁻¹

In order of falling “kdis” value:
1. B1  8.69e-05 s⁻¹
2. B3  3.35e-05 s⁻¹

system: constitutively high plasma ACTH in Mrap1 KO mice; assay: Mrap1 KO mice constitutively high ACTH model; type: in vivo, mouse; details: single dose 20 mg/kg
Description: 8-10 week old wildtype female C57BL/6 mice were obtained from Charles River Laboratories. Mrap1 KO mice were obtained from Queen Mary University of London, UK. SSR125543A, a small molecule CRHR1 antagonist, was obtained from Axon Medchem (Cat #Axon 1799). Mouse Corticosterone (55-Corms-E01) and adrenocorticotropic hormone (ACTH) ELISA kits (21-ACTHU-E01) were obtained from ALPCO, USA. All procedures were carried out in accordance with the Guide for the Care and Use of Laboratory Animals of the National Institutes of Health. Protocols were approved by Charles River Laboratories Institutional Animal Care and Use Committee (IACUC).
To generate Mrap1 KO mice, Mrap1−/− male mice were bred with Mrap1+/− female mice. Corticosterone hormone replacement was performed by administering 50 μg/ml in drinking water to breeder cages when female mice were pregnant and their pregnancies palpable (approximately embryonic day 10). Drinking water was changed weekly, and treatment was stopped at weaning. Mice were uniquely identified with ear tags at the time of tail clipping to match future genotype with each mouse. DNA was extracted from tail tissue and used to genotype mice.
[…] On day 2 or 3, 14 and 28, 200 μl of blood was collected in EDTA tubes from the submandibular vein of each mouse. […]

For B2, the “plasma ACTH concentrations in Mrap1 KO mice” value was “markedly reduced”.
In the case of B3, the “plasma ACTH concentrations in Mrap1 KO mice” value is reported as “markedly reduced”.

Residue numbers refer to the chain shown, from its start.
